For 153 variants, enrichment ratio results are on record in a collection of fitness landscapes (doi:10.1126/science.1257360).

Some of the results follow.

B1: PhoQ; a variant is named by its letters at X, in order, P23837 (parent)
chain: MKKLLRLFFPLSLRVRFLLATAAVVLVLSLAYGMVALIGYSVSFDKTTFRLLRGESNLFYTLAKWENNKLHVELPENIDKQSPTMTLIYDENGQLLWAQRDVPWLMKMIQPDWLKSNGFHEIEADVNDTSLLLSGDHSIQQQLQEVREDDDDAEMTHSVAVNVYPATSRMPKLTIVVVDTIPVELKSSYMVWSWFIYVLSANLLLVIPLLWVAAWWSLRPIEALAKEVRELEEHNRELLNPATTRELTSLVRNLNRLLKSERERYDKYRTTLTDLTHSLKTPLXXLQXXLRSLRSEKMSVSDAEPVMLEQISRISQQIGYYLHRASMRGGTLLSRELHPVAPLLDNLTSALNKVYQRKGVNISLDISPEISFVGEQNDFVEVMGNVLDNACKYCLEFVEISARQTDEHLYIVVEDDGPGIPLSKREVIFDRGQRVDTLRPGQGVGLAVAREITEQYEGKIVAGESMLGGARMEVIFGRQHSAPKDE

Variants of B1 are the subject of this assay. The experiment in a line: enrichment ratio after two sorts for PhoP signalling (ratio (wild type AVST 3.29)); higher = more functional. To be noted: with PhoP (E. coli).
Take QCSK: the enrichment ratio was not above 0.25.

As to SGGT, the enrichment ratio was found to be 2.3.

As for RKHA, the enrichment ratio is not above 0.25.

On to KMSW, for which the enrichment ratio is not above 0.25.

Regarding YYNA, the enrichment ratio was not above 0.25.

With FTKF, the enrichment ratio was not above 0.25.

ARVH: the enrichment ratio is not above 0.25.

Take VHPI: the enrichment ratio was not above 0.25.

Turning to HSWC, the enrichment ratio is not above 0.25.

QAPD: the enrichment ratio was not above 0.25.

Turning to MYKI, the enrichment ratio was not above 0.25.

As for HYQH, the enrichment ratio was not above 0.25.

As to FPVW, the enrichment ratio is not above 0.25.

In the case of SNHI, the enrichment ratio is not above 0.25.

DNLG: the enrichment ratio was not above 0.25.

Consider VNTQ, for which the enrichment ratio is not above 0.25.

Consider PFQC, for which the enrichment ratio was not above 0.25.

Turning to LEDE, the enrichment ratio is not above 0.25.

GFHF: the enrichment ratio is not above 0.25.

With RCHV, the enrichment ratio was not above 0.25.

DYNQ: the enrichment ratio was not above 0.25.

As for YPHS, the enrichment ratio is not above 0.25.

Regarding AMTH, the enrichment ratio was determined as 0.411.

In the case of GMMF, the enrichment ratio is 3.35.

MIHG: the enrichment ratio was not above 0.25.

On to LYPC, for which the enrichment ratio was not above 0.25.

Take VVEW: the enrichment ratio is not above 0.25.

For the variant QDNT, the enrichment ratio is not above 0.25.

With CSRL, the enrichment ratio was not above 0.25.

In the case of IYQR, the enrichment ratio is not above 0.25.

As to HVGG, the enrichment ratio is not above 0.25.

Take NSIR: the enrichment ratio is not above 0.25.

Turning to LQYS, the enrichment ratio is not above 0.25.

For WLAP, the enrichment ratio was not above 0.25.

In the case of FILP, the enrichment ratio was not above 0.25.

With VRMR, the enrichment ratio was not above 0.25.

With WSNA, the enrichment ratio was not above 0.25.

SMQG: the enrichment ratio was found to be 0.385.

For TFPD, the enrichment ratio was not above 0.25.

Take TRKV: the enrichment ratio is not above 0.25.

Consider MDKR, for which the enrichment ratio was not above 0.25.

On to WSST, for which the enrichment ratio is not above 0.25.

As for NNCN, the enrichment ratio was not above 0.25.

With WLIC, the enrichment ratio is not above 0.25.

Turning to FYKW, the enrichment ratio was not above 0.25.

For the variant VMWH, the enrichment ratio turned out to be 0.55.

Consider YYIF, for which the enrichment ratio is not above 0.25.

As for VMNT, the enrichment ratio was not above 0.25.

With RETI, the enrichment ratio is not above 0.25.

With YAEF, the enrichment ratio was not above 0.25.

ISIT: the enrichment ratio was not above 0.25.

With KGYV, the enrichment ratio is not above 0.25.

Turning to FYFI, the enrichment ratio was not above 0.25.

Take QRKE: the enrichment ratio was not above 0.25.

Turning to ARVM, the enrichment ratio turned out to be 14.7.

In the case of IMVQ, the enrichment ratio was not above 0.25.

As for SPNK, the enrichment ratio was not above 0.25.

In the case of IGFG, the enrichment ratio was not above 0.25.

MMNY: the enrichment ratio was not above 0.25.

Take HVWD: the enrichment ratio is not above 0.25.

As for YDQH, the enrichment ratio is not above 0.25.

Take QHSA: the enrichment ratio was not above 0.25.

With IMKN, the enrichment ratio is not above 0.25.

As for KHFY, the enrichment ratio is not above 0.25.

STRP: the enrichment ratio is not above 0.25.

Regarding EDHP, the enrichment ratio was not above 0.25.

Consider RSHW, for which the enrichment ratio is not above 0.25.

For the variant FVWT, the enrichment ratio is not above 0.25.

RGGG: the enrichment ratio is not above 0.25.

In the case of FRRL, the enrichment ratio was not above 0.25.

For MKCG, the enrichment ratio was not above 0.25.

Regarding MHTW, the enrichment ratio is not above 0.25.

Consider AAIK, for which the enrichment ratio was not above 0.25.

On to WSIG, for which the enrichment ratio was not above 0.25.

Turning to ICWK, the enrichment ratio was not above 0.25.

For the variant MMEL, the enrichment ratio was not above 0.25.

On to YTRY, for which the enrichment ratio is not above 0.25.

QEPD: the enrichment ratio is not above 0.25.

For the variant AWDS, the enrichment ratio was not above 0.25.

On to TIMD, for which the enrichment ratio was not above 0.25.

As for NNKR, the enrichment ratio is not above 0.25.

On to RGIK, for which the enrichment ratio was not above 0.25.

Consider HGIH, for which the enrichment ratio is not above 0.25.

Turning to LYAQ, the enrichment ratio is not above 0.25.

In the case of YQCP, the enrichment ratio was not above 0.25.

As to WPLI, the enrichment ratio is not above 0.25.

For the variant RMSN, the enrichment ratio is not above 0.25.

Consider PIAH, for which the enrichment ratio is not above 0.25.

As for SADS, the enrichment ratio was not above 0.25.

On to AARR, for which the enrichment ratio was not above 0.25.

Regarding LVYV, the enrichment ratio was not above 0.25.

VGSH: the enrichment ratio was not above 0.25.

Turning to FCWC, the enrichment ratio was not above 0.25.

Turning to HTNY, the enrichment ratio was not above 0.25.

IISM: the enrichment ratio was not above 0.25.

Turning to YIDT, the enrichment ratio was not above 0.25.

Regarding CLIW, the enrichment ratio is not above 0.25.

For TVQY, the enrichment ratio stood at 19.2.

EATQ: the enrichment ratio was not above 0.25.

In the case of TYVQ, the enrichment ratio was not above 0.25.

As to AQGF, the enrichment ratio came out at 9.78.

Regarding IQMP, the enrichment ratio was not above 0.25.

EFNV: the enrichment ratio is not above 0.25.

For DFMT, the enrichment ratio was not above 0.25.

Turning to RTCC, the enrichment ratio was not above 0.25.

Regarding FVDH, the enrichment ratio was not above 0.25.

As for MNFN, the enrichment ratio was not above 0.25.

As for VTSG, the enrichment ratio was not above 0.25.

Turning to HNVA, the enrichment ratio is not above 0.25.

For the variant HIRF, the enrichment ratio was not above 0.25.

For the variant PTQT, the enrichment ratio was not above 0.25.

For PCMW, the enrichment ratio is not above 0.25.

As to WDDS, the enrichment ratio is not above 0.25.

In the case of NDFE, the enrichment ratio was not above 0.25.

For the variant FHGD, the enrichment ratio was not above 0.25.

With NGID, the enrichment ratio is not above 0.25.

Take TRKP: the enrichment ratio is not above 0.25.

In the case of DIWW, the enrichment ratio was not above 0.25.

In the case of AQQC, the enrichment ratio was not above 0.25.

As to LEIL, the enrichment ratio is not above 0.25.

Take VTWV: the enrichment ratio was not above 0.25.

Consider RELN, for which the enrichment ratio is not above 0.25.

Take NLEM: the enrichment ratio was not above 0.25.

Consider VPAY, for which the enrichment ratio was not above 0.25.

In the case of GYGN, the enrichment ratio is not above 0.25.

For MCQG, the enrichment ratio was not above 0.25.

For MMEG, the enrichment ratio was not above 0.25.

For TYMD, the enrichment ratio is not above 0.25.

For RVGD, the enrichment ratio was not above 0.25.

For GMPH, the enrichment ratio is not above 0.25.

For the variant KCIP, the enrichment ratio was not above 0.25.

Consider HARS, for which the enrichment ratio was not above 0.25.

Consider LFDN, for which the enrichment ratio was not above 0.25.

On to DDFW, for which the enrichment ratio is not above 0.25.

Regarding DVSA, the enrichment ratio was not above 0.25.

As for SQHY, the enrichment ratio is not above 0.25.

Take ACCV: the enrichment ratio was found to be 8.87.

For SMCM, the enrichment ratio came to 8.16.

With STKL, the enrichment ratio is 0.49.

In the case of IEWI, the enrichment ratio is not above 0.25.

Consider RMGV, for which the enrichment ratio is not above 0.25.

As to QQPT, the enrichment ratio was not above 0.25.

Consider QTNV, for which the enrichment ratio was not above 0.25.

For the variant IGMC, the enrichment ratio is not above 0.25.

For IASG, the enrichment ratio was not above 0.25.

HVPP: the enrichment ratio is not above 0.25.

For the variant SGHH, the enrichment ratio is not above 0.25.

Take DKTW: the enrichment ratio is not above 0.25.

As to NLIF, the enrichment ratio is not above 0.25.

For KPYS, the enrichment ratio was not above 0.25.

Take SICT: the enrichment ratio stood at 7.3.

On to HTWE, for which the enrichment ratio is not above 0.25.

SGCL: the enrichment ratio amounted to 15.6.
